“And” between values parts separate entries of the source, which are not always exact repeats. Identical values can stand only once. Screen size: about 110,000 compounds; about 230 (0.21%) showed an effect of 50% or more. This is one part of the list.
Molecular target: DPAP1 (Plasmodium falciparum, UniProt Q8IIJ9)
Assay: primary screen, percent inhibition; read by cleavage of a fluorogenic dipeptide substrate; higher = more effect of the substance
Design: species or system P. falciparum D10 trophozoite lysates; single well
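Further: 30 min substrate incubation versus DMSO and 10 µM JCP410 controls.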

Chain of DPAP1 (Q8IIJ9 whole entry, looked up): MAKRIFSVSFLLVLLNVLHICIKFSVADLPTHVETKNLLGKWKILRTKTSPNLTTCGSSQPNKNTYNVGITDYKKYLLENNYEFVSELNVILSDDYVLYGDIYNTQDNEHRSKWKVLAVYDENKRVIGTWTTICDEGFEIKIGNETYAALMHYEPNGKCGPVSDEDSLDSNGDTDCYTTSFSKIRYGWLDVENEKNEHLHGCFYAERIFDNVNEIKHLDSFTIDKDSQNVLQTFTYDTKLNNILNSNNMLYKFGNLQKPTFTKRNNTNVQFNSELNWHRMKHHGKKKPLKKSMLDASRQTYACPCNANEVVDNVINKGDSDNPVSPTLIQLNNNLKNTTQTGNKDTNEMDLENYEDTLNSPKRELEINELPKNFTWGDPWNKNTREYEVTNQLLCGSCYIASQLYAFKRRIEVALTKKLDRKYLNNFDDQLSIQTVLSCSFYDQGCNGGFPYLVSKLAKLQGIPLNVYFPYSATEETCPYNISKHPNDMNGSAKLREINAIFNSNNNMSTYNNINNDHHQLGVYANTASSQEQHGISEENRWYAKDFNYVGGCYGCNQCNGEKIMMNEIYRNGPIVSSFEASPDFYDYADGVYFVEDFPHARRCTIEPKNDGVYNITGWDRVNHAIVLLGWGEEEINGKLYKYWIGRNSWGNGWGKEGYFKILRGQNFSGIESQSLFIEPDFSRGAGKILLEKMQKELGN

| SMILES | % Inhibition @ 10 uM |
| --- | --- |
| COC(F)(C(=O)Nc1c(-c2ccccc2)nc2ccccn12)C(F)(F)F (stereo not shown) | 4.11% |
| Cc1nc2c(cc1C#N)C(=O)c1ccccc1-2 | -7.25% |
| COCC(C)NC(=O)C1CC(c2cc(OC)ccc2OC)=NO1 (stereo not shown) | 2.65% |
| CN(C)C(=O)C(Cc1ccccc1)N1C(=O)C2C3C=CC(C3)C2C1=O (stereo not shown) | 1.12% |
| Cc1ccc(C2=N/C(=C\c3ccccc3C)C(=O)O2)cc1 | 1.25% |
| CC(=O)c1c(C)oc2c(Cl)cc(NS(=O)(=O)c3cc(C)ccc3C)cc12 | -5.15% |
| CO/C(O)=C1/C(C)=Nc2nc(O)nc(O)c2C1c1ccc(OCc2ccccc2)cc1 (stereo not shown) | 3.47% |
| O=C(NC1CCCCC1)ON=C1c2ccccc2-c2ccccc21 | -5% |
| COc1ccc(C(=O)/C(=C\c2ccco2)N2C=CC=CC2=C(C#N)C#N)cc1 | 2.7% |
| O=C(Cn1cc(C(=O)C(F)(F)F)c2ccccc21)NCc1cccs1 | -4.97% |
| CCCc1nc(N)c(C#N)c(-c2ccccc2Cl)c1CC | 4.51% |
| Cc1ccccc1/C=C1/NC(=O)NC1=O | 3.8% |
| Cc1ccsc1CN1CCN(c2ccc([N+](=O)[O-])cc2)CC1 | -6.21% |
| COc1ccc(N2CCN(c3ccc(NC(=O)CCC(=O)O)cc3)CC2)cc1 | 5.15% |
| CC(=O)NS(=O)(=O)c1ccc(NC(=O)c2ccc(-c3cccc(Cl)c3C)o2)cc1 | 2.01% |
| COc1ccc2nc(C)cc(Nc3ccc(Cl)cc3)c2c1 | 0.0345% |
| CCCOc1ccc(CN(C(=O)c2cc(=O)c3ccccc3o2)C2CCS(=O)(=O)C2)cc1 (stereo not shown) | 0.248% |
| O=C(c1ccco1)N1CCN(C(=O)c2noc3c2CCCC3)CC1 | -8.54% |
| CSC1=NSC2=NC(=O)/C(=C\c3ccc(-c4ccc(C(=O)O)cc4)o3)C(=N)N12 | 1.9% |
| O=C(c1ccccc1)N(c1ccc(Br)cc1)C1C2CC3CC(C2)CC1C3 (stereo not shown) | -1.96% |
| Cn1c(C(=O)O)c(CNCCc2ccc(S(N)(=O)=O)cc2)c2ccccc21 | 1.93% |
| CCn1c(NC(=O)COc2cccc(C(F)(F)F)c2)nc2ccccc21 | -1.88% |
| COC(=O)c1nn2c(C(F)(F)F)cc(-c3ccccc3)nc2c1Br | 1.87% |
| N#CC1(NC(=O)[C@H](Cc2cc(Cl)c(O)c(Cl)c2)NC(=O)c2ccc(Cl)cc2)CC1 | 1.7% |
| Cc1ccc(-c2[nH]nc3c2C(c2ccc(Cl)cc2Cl)NC3=O)cc1 (stereo not shown) | 0.208% |

| SMILES | % Inhibition @ 10 uM |
| --- | --- |
| CC(=O)Nc1ccc(S(=O)(=O)N2CCCCC2)cc1 | -6.22% |
| Cc1ccc(CNC(=O)/C=C/c2ccco2)cc1 | 1.88% |
| COc1cc(Cl)cc(/C=N/c2sc3c(c2C#N)C2CCN3CC2)c1O | -5.51% |
| COc1cc(OC)cc(C(=O)Nc2ccc(Cl)cc2)c1 | -4.15% |
| CCOC(=O)c1[nH]c(C)c(C(=O)CC(C)(C)C)c1C | -2.42% |
| CCCC1=C(C(=O)OCC)C(c2ccc(OC)cc2OC)NC(=O)N1 (stereo not shown) | 3.61% |
| COc1ccc(C(=O)n2nc(C)c(Sc3ccccc3)c2C)cc1 | 12% |
| O=C(COc1ccc(Cl)cc1)Nc1ccc(S(=O)(=O)Nc2ccccc2)cc1 | 2.01% |
| CC(C)(C)C(/C=C/c1ccc(Cl)cc1Cl)NC(=O)C1(N2CCC2=O)CCCCC1 (stereo not shown) | 15.3% |
| Cc1ccc2oc(=O)c3cnn(CC(=O)NCCc4ccsc4)c3c2c1 | -5.25% |
| O=C(Nc1cccnc1)c1cc2ccc3cccnc3c2[nH]1 | -3.65% |
| O=S(=O)(c1ccc(Cl)cc1)N1CCN(Cc2cccc(F)c2)CC1 | -7.18% |
| CC1=C(C(=O)Nc2ccc(Cl)cc2)C(c2ccc(O)cc2)n2nc(CCCO)nc2N1 (stereo not shown) | -6.67% |
| Cc1ccc(-c2cc(C(F)(F)F)n3ncc(C(=O)N(C)Cc4cn(C)nc4C)c3n2)cc1 | 3.89% |
| Cc1ccc2nc(Nc3nc(C)c(Cc4ccccc4)c(O)n3)nc(C)c2c1 | 5.49% |
| Cn1c2ccccc2c2cnn(CC(=O)NCCCN3CCC(Cc4ccccc4)CC3)c(=O)c21 | 1.41% |
| COc1cccc2c1OC(c1ccncc1)N1N=C(c3ccccc3O)CC21 (stereo not shown) | 0.0719% |
| O=c1c2c3c(sc2[nH]c(=S)n1-c1ccc(Cl)cc1)CCC3 | 62.5% |
| Cc1ccc(C2C(c3ccc(S(=O)(=O)N(C)C)cc3)=C(O)C(=O)N2CCCN2CCOCC2)cc1 (stereo not shown) | 4.74% |
| CC1CCCC(C)N1CCNc1nc2ccccc2c2nc(-c3ccccc3)nn12 (stereo not shown) | -2.42% |
| Cc1ccc(-n2nnc(-c3nsc(NC(=O)c4cccs4)n3)c2C)cc1 | 0.399% |
| Cn1c(Cc2ccccc2)nc2ccccc21 | -3.61% |
| O=C(c1ccc2c(c1)OCO2)N1CCN(c2ccc(Cl)cc2)CC1 | -2.56% and -2.74% |
| CCOC(=O)C1CCN(C2CCN(CCc3ccccc3)CC2)CC1 | 6.26% |
| Cc1ccc2cc(CCNS(=O)(=O)c3ccc(Br)cc3)c(O)nc2c1 | 0.8% |

| SMILES | % Inhibition @ 10 uM |
| --- | --- |
| O=C(O)c1ccc(CNS(=O)(=O)c2cccc(C(F)(F)F)c2)cc1 | 1.86% |
| Cc1ccc(-c2c(C#N)c(S)nc3c2CCCC3)o1 | 37.9% |
| Cc1ccc(-c2onc(C)c2C)cc1S(=O)(=O)N(C)Cc1ccco1 | -6.66% |
| CC(C)c1ccccc1NC(=O)COc1ccccc1 | -8.53% |
| CNC(=O)c1[nH]cnc1C(=O)Nc1ccc(OC)cc1 | -0.992% |
| COc1ccc(C2C3=C(O)CC(C)(C)CC3=Nc3ccccc3N2C(=O)C(F)(F)F)c(OC)c1 (stereo not shown) | 0.385% |
| C=CCn1c(Cc2c[nH]c3ccccc23)nnc1SCC(=O)NCc1ccccc1 | 0.238% |
| O=C(NCCCN1CCOCC1)c1ccc2c(Cl)c3c(nc2c1)CCCC3 | 0.809% |
| COc1ccccc1CNC(=O)c1sc2nc(-c3ccc(F)cc3)ccc2c1N | -1.6% |
| Cc1ccc2c(c1)c1c3n2CCN(C/C(=N/O)c2ccc(Br)cc2)C3CCC1 (stereo not shown) | 2.13% |
| COc1ccc(-c2noc(CSc3nnc(-c4ccc(Cl)cc4)n3C)n2)cc1 | 7.5% |
| C1=C(c2c[nH]c3ccccc23)CCNC1 | 1.63% |
| CCC(C)c1ccc(NC(=O)Cc2cccs2)cc1 (stereo not shown) | 3.94% |
| COc1ccc(CNC(=O)c2cc3c(Cl)ccc4c3n2CCO4)cc1 | -3.84% |
| Cc1nn(C(C)C(=O)NC2CCCCCC2)c(=O)c2cc3sccc3n12 (stereo not shown) | 3.4% |
| O=C(NCCN1CCCC1)c1ccc(Br)cc1 | -9.31% |
| CCCNC(=O)c1nnc(-c2ccc3c(c2)OCO3)o1 | -10.4% |
| O=C(NCCc1c[nH]c2ccccc12)c1c(F)cccc1F | -1.43% |
| CCc1ccc(CNCc2c(C(=O)O)n(CC)c3cc(C)ccc23)cc1 | 0.436% |
| N#CCCn1c2ccc(Cl)cc2c2cc(Cl)ccc21 | -1.97% |
| CCN(C(=O)c1ccccc1OC)c1nc(-c2ccc(C)cc2)cs1 | 1.72% |
| CC1CCCCN1S(=O)(=O)c1ccc(C(=O)Nc2nc3c(s2)CSc2ccccc2-3)cc1 (stereo not shown) | 0.343% |
| COc1ccc(OCC(=O)Nc2cccnc2)cc1 | 3.79% |
| Cc1ccc(Cl)cc1NC(=O)COc1ccc(S(=O)(=O)NC(C)(C)C)cc1 | -4.12% |
| c1ccc(CSc2ccc(-c3cccs3)nn2)cc1 | -0.256% |

| SMILES | % Inhibition @ 10 uM |
| --- | --- |
| O=C(CSc1nc2ccc(Cl)cc2o1)Nc1nc(-c2ccccc2)no1 | -0.92% |
| C[C@@H]1CC2(CCCN2Cc2ccccc2)C[C@H]1C | -2.45% |
| O=C(c1cnn(-c2ccccc2)c1-n1cccc1)N1CCc2ccccc2C1 | 3.2% |
| Cc1cc2cc(CO)c(O)nc2cc1C | 2.05% |
| CN1CCc2c(sc(N)c2C(N)=O)C1 | 2.22% |
| Cc1cccc(OCC(=O)NCc2ccc(F)cc2)c1 | -10% |
| O=C(COc1ccccc1)Nc1ccc(S(=O)(=O)N2CCCC2)cc1 | 2.39% |
| O=C(Nc1cccnc1)C1CC(c2ccccc2F)=NO1 (stereo not shown) | 1.24% |
| CCc1nc2ccccc2n1CCCOc1ccc(C)cc1 | 2.73% |
| CCOCCCNC(=O)CSc1nc2nc(C)cc(C)n2n1 | -4.29% |
| NS(=O)(=O)c1cccc(NS(=O)(=O)c2ccc(Cl)c([N+](=O)[O-])c2)c1 | 3.06% |
| COc1ccc(Br)cc1CN1CCCN(C)CC1 | -2.56% |
| COc1ccc(C2CC(O)=C/C(=N/c3ccc(C)c(C)c3)C2)cc1OC (stereo not shown) | 0.674% |
| COc1ccc(-c2cc(C(F)(F)F)n3nc(C(=O)N(C)Cc4cn(C)nc4C)cc3n2)cc1OC | -2.29% |
| CCOC(=O)N1CCC(NC(=O)C2CCCN(Cc3nc(-c4ccc(CC)cc4)oc3C)C2)CC1 (stereo not shown) | -1.05% |
| Cc1ccsc1CN(C(=O)COc1c(F)c(F)c(F)c(F)c1F)C1CCS(=O)(=O)C1 (stereo not shown) | 2.19% |
| CN(C)c1ccc(-c2nc(S)nc(O)c2C#N)cc1 | -0.0217% |
| OC(C#CC12CC3CC(CC(C3)C1)C2)c1cccnc1 (stereo not shown) | -6.83% |
| CN(C1CCCCC1)S(=O)(=O)N1CCCC(C(=O)NCc2ccccc2Cl)C1 (stereo not shown) | -2.56% |
| OCC(C#CCN1CCCC1)NCc1ccccc1 (stereo not shown) | -3.81% |
| FC(F)(F)c1ccccc1CNCC1NCCc2ccccc21 (stereo not shown) | 1.01% |
| CC[C@H](NC(=O)[C@H](CC(C)(C)C)N[C@@H](c1ccc(F)cc1)C(F)(F)Sc1ccc(F)cc1)C(=O)c1nc2ccccc2o1 | -1.5% |
| CO/C(O)=C1\Sc2ccccc2N=C1C | -0.436% |
| COc1ccc(C2(C(=O)N3CCCC3)CCOCC2)cc1 | -2.75% |
| COc1ccc(-c2c(N)n[nH]c2C)cc1 | -5.47% |

Reference: publication PMC6919601, “Identification of Plasmodium dipeptidyl aminopeptidase allosteric inhibitors by high throughput screening” (PLoS ONE, 2019)
